Reference: the supplement of paper PMC11417369
Some of the results follow.

Each sequence was assayed on PfAP2-HC AP2 domain (GST-tagged) (assay: gcPBM binding intensity (ln(normalized median fluorescence intensity)); higher = stronger DNA binding).
Procedure, shortened: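 Binding intensity is the highest Masliner-normalised natural-log median intensity over replicate spots in either probe orientation. To obtain it, GST-tagged P. falciparum DNA-binding domains made in E. coli were incubated for 1 h on an Agilent 4 × 180k array of primer-extended double-stranded 36-bp intergenic genomic probes plus negative controls. Detection used Alexa488 anti-GST antibody with scanning at 488 nm.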

First: AGTTTATATTATTAAAGTACATATATATATTCTTAA [XGTACX_site3164]
Second: AGTCGAATGATGTACACACATACAAAACATTTATGC [CACACA_site4022]
The “gcPBM binding intensity (ln)” value of the first is lower: 9.51 for the first, 9.94 for the second.

Going from “ATCATGTTATATATATGTACTAATAATATAATATAA [XGTACX_site1326]” to “AGTATATTAATATAATGTACAAACGTTTATTTTGTA [XGTACX_site5980]”, the “gcPBM binding intensity (ln)” value rises from 9.51 to 9.79.

First: GTTTAAAATCTTTGCACACATATAAATAAATATATT [CACACA_site2555]
Second: GAAAAGTAGACAATATGTACATATAGTATTTATAAA [XGTACX_site878]
The “gcPBM binding intensity (ln)” value of the first is lower: 9.77 for the first, 10 for the second.

Going from “AGCAACCCCCTAGCTACACACATATAGATATAAATA [CACACA_site6577]” to “AAATATCTACATATTTGTACATATTTATACATATTT [XGTACX_site6300]”, the “gcPBM binding intensity (ln)” value falls from 10.6 to 9.82.

Going from “TATATATTATAAAAGAGTACAGAAAGAAAAAAAAAT [XGTACX_site8305]” to “ATATTCAATATATTATGTACACATATATGAGGATAT [XGTACX_site7019]”, the “gcPBM binding intensity (ln)” value rises from 9.74 to 9.75.

Compared with “AAACTTTTTTTAAAAACACACATATATATTTATATA [CACACA_site4092]”, “ATAATGTTTCTTTCAACACACAAAAAATGAACCCAT [CACACA_site4947]” is higher in “gcPBM binding intensity (ln)” value: 9.79 for the first, 10 for the second.

Going from “TATTTATAAAAAAAATGTACATTTATGTATAAGCTA [XGTACX_site3266]” to “TAAAAAAGTTATATTACACACTTTATTGGTTAACTT [CACACA_site653]”, the “gcPBM binding intensity (ln)” value rises from 9.55 to 9.71.

Going from “ACATATAAATTATATACACACAATAATATATATATA [CACACA_site1384]” to “TATATATAGAAACACACACACACATATATATATATA [CACACA_site4116]”, the “gcPBM binding intensity (ln)” value rises from 9.85 to 10.3.

First: AAAATTTAATATAATGCACACATAAAAAAAAAATCA [CACACA_site7882]
Second: AATATCAATATTATATGTACTTATAATTTCAATGTA [XGTACX_site2423]
The “gcPBM binding intensity (ln)” value of the first is higher: 9.79 for the first, 9.59 for the second.

First: TAAATTTATTAATCAAGTACAAAATAAATTTTTATA [XGTACX_site2745]
Second: ATATATTTTTAATTTGCATGTAGTAAAGCCTTAAAT [TGCATGCA_site593]
The “gcPBM binding intensity (ln)” value of the first is lower: 9.26 for the first, 9.44 for the second.

Going from “CATCAAGTGAATTGTTGTACTTTACATTGTTTTTAT [XGTACX_site7261]” to “TATAAATTTTGTTTAGCACACACACCGACATACATA [CACACA_site9033]”, the “gcPBM binding intensity (ln)” value rises from 10.2 to 10.6.

Compared with “ATGTTGTACAGACACACACACAAAAAAAAAATAAAA [CACACA_site7184]”, “ATATATATATATATATGTACATACATACAATCATAT [XGTACX_site6410]” is lower in “gcPBM binding intensity (ln)” value: 10.2 for the first, 10.1 for the second.

First: CTTACATATTACATATGTACATATACACCTTATGTC [XGTACX_site4679]
Second: TATAATAGCTTCTTTACACACACCATTTTTTTTTTT [CACACA_site1456]
The “gcPBM binding intensity (ln)” value of the first is lower: 9.89 for the first, 10.2 for the second.

First: ATATATTTACTTAATACACACAAAAAAAAAAAAAAA [CACACA_site3657]
Second: TTTAATTTTTATATAACACACATATTGGAATTATGT [CACACA_site734]
The “gcPBM binding intensity (ln)” value of the first is lower: 9.47 for the first, 9.9 for the second.

Compared with “TTAAATGTGAAGTGAATACACACCTAATAAATATAA [CACACA_site3194]”, “TTTTTTACATACAGAAATATATAATATAAAATAAAT [GTGCAC_negctrl_site278]” is lower in “gcPBM binding intensity (ln)” value: 9.5 for the first, 9.36 for the second.

Compared with “TTATGTATTACCTGCCGTACTTCTAAAATAATTAAA [XGTACX_site1716]”, “TGTTACAAAAAATAATGTACTTAATATATATATATA [XGTACX_site1016]” is lower in “gcPBM binding intensity (ln)” value: 9.5 for the first, 9.43 for the second.

First: TATCTTCATTTTTTTGGTACGCACGCAAATATGGCT [XGTACX_site3107]
Second: ACTGTCATTTATTGTAGTACGTCAATTTATTACATT [XGTACX_site2749]
The “gcPBM binding intensity (ln)” value of the first is lower: 9.65 for the first, 10.3 for the second.

First: TATAATATGTTATATACACACATTATAAAATACACA [CACACA_site6742]
Second: TAATAATAAATAAAATGTACATATGAACAAATAAGT [XGTACX_site6710]
The “gcPBM binding intensity (ln)” value of the first is lower: 9.84 for the first, 9.97 for the second.

First: AAAAAAAAAATTAATTGTACTAAAAAAATATTATAT [XGTACX_site8903]
Second: TGAATATTCATGTGTGTGCGCATGTTGTTAGACCAT [GTGCAC_site9869]
The “gcPBM binding intensity (ln)” value of the first is lower: 9.48 for the first, 10.4 for the second.

Compared with “TGTTTTCTTGATTATTGTACTTTAATTAGTAATATG [XGTACX_site8674]”, “TAAATACATTTATGTACACACACATAGATGTATATT [CACACA_site5618]” is higher in “gcPBM binding intensity (ln)” value: 9.64 for the first, 9.93 for the second.

Compared with “AAAAATATTATAAGCACACATATATATATATATATA [CACACA_site2458]”, “TTATATATAATATGACGTACAATTATACATTTTATG [XGTACX_site7598]” is higher in “gcPBM binding intensity (ln)” value: 9.53 for the first, 9.58 for the second.

First: ATAAATATTTATAACAGTACATATTTACTATCCTAA [XGTACX_site4497]
Second: ACGATTAAATCGATAATACACACTAAATGTAAAACA [CACACA_site119]
The “gcPBM binding intensity (ln)” value of the first is lower: 9.56 for the first, 9.84 for the second.

First: TATACACATATTTTTACACACATATTTTTTCATATA [CACACA_site7244]
Second: TATATTATTTTTAGAAGTACTTATTGTTATAATTCT [XGTACX_site1015]
The “gcPBM binding intensity (ln)” value of the first is higher: 9.98 for the first, 9.57 for the second.

Compared with “AGAAAAGATAAAAATAGTACATATATATTTACTTAT [XGTACX_site7820]”, “CTCCTTTCAAAAAAATGTACATGTTTACATTTCAAG [XGTACX_site7342]” is lower in “gcPBM binding intensity (ln)” value: 9.6 for the first, 9.55 for the second.

First: TATATCAAAATACATACACACATTTGTATTTACATT [CACACA_site5485]
Second: ATTTTAATTTGTTATACACACACAAAAAAAATTATA [CACACA_site9306]
The “gcPBM binding intensity (ln)” value of the first is lower: 9.87 for the first, 9.89 for the second.

Going from “TTTTTTTTTAATCATGCACACTGTTAAAAGAATAAA [CACACA_site4817]” to “TATAAAAAAATATATATATATATTATATGTGTAGAA [TGCATGCA_negctrl_site391]”, the “gcPBM binding intensity (ln)” value rises from 9.29 to 9.78.

Going from “ATTTATTTGAAGAATTGTACTAAATTATATAGCGGT [XGTACX_site4998]” to “TACATTTATACTACTGCATTCAAAAAAAATAAAAAA [TGCATGCA_negctrl_site157]”, the “gcPBM binding intensity (ln)” value falls from 9.51 to 9.42.

Compared with TGCTTATTTAGAATTGTGCACAGCGAATATTCTGTT, “GAATCCTTAATATGAACACACAAATATATTACCCAT [CACACA_site186]” is higher in “gcPBM binding intensity (ln)” value: 9.73 for the first, 9.83 for the second.

Going from TTTTGTTATTTTTCAGTGCAATATGATAATAATATA to “TCTTTTTAACAAAAAAAAAAAAAAAAAAAAAAATTA [CACACA_negctrl_site1637]”, the “gcPBM binding intensity (ln)” value falls from 9.51 to 9.12.

First: AGAATTTTATTATATTGTACTTTTTATAAACCTTGT [XGTACX_site7495]
Second: TAGGAAAAAAATACAGTGCAATTTTTATATAAATAA [GTGCAC_site9979]
The “gcPBM binding intensity (ln)” value of the first is higher: 9.61 for the first, 9.59 for the second.

Going from “TTTTTTTTTTTTTTGTGTACTAATATTATAAATTTT [XGTACX_site4405]” to “TTTATATAAATCAAATGTACATATTCCAAATATATA [XGTACX_site8515]”, the “gcPBM binding intensity (ln)” value rises from 9.42 to 9.44.

Compared with “TACATATTTTATAACTGTACTTTTTTATTATCCAAT [XGTACX_site5396]”, “TTTTTTTTTTCAAATACATGCATTTATGTATAATAC [TGCATGCA_site722]” is lower in “gcPBM binding intensity (ln)” value: 9.66 for the first, 9.53 for the second.

Going from “TATTCTAATATATGCATACACACAAATGTGAATATA [CACACA_site2143]” to “CACATTATGTATCATACACACAAATAAATATAGAAT [CACACA_site609]”, the “gcPBM binding intensity (ln)” value rises from 9.66 to 10.

First: TTTATATGTATTAAGTGTACACATATAATGTGTTTT [XGTACX_site4890]
Second: TTTTTTTTTTTTTTTACACACACAAAATATTATATG [CACACA_site2471]
The “gcPBM binding intensity (ln)” value of the first is lower: 9.73 for the first, 9.88 for the second.

Going from “TATTATTTACCTTGCTAGTTCGTTCCAAATTTTATG [XGTACX_negctrl_site197]” to “TATATTATTCATTAAGCACACATTATTTTTATAATA [CACACA_site6056]”, the “gcPBM binding intensity (ln)” value falls from 9.81 to 9.69.

Compared with “ATGTTTGATGCTACACGTACACACCTTGCAAATATT [XGTACX_site1644]”, “AAAACTATAATAAAAGGTACACATTTATTTTTTTCT [XGTACX_site730]” is lower in “gcPBM binding intensity (ln)” value: 9.88 for the first, 9.68 for the second.

Compared with “AAAACAAATTTTAATGAGAATATGAAAAAAAAATAT [XGTACX_negctrl_site268]”, “CTTTGTGGTATAGATACACACTATATTAATATGAAC [CACACA_site7081]” is higher in “gcPBM binding intensity (ln)” value: 9.63 for the first, 9.66 for the second.

Going from “AAATAAAAAGGGTGCACACAAAAATATATATATATA [CACACA_site1728]” to “ATTTTAAATATTTGTGGTACCCCTTTTTTGTAACAA [XGTACX_site5590]”, the “gcPBM binding intensity (ln)” value falls from 9.94 to 9.61.

First: TAAAAAAGAACAGAAACACACAAATAAAATAAAATT [CACACA_site1758]
Second: CAAAATTGAAGGAACACACATACATATATATATATG [CACACA_site179]
The “gcPBM binding intensity (ln)” value of the first is higher: 10.6 for the first, 9.85 for the second.

First: ATTTATTTATGTATTTGTACGTATATATTTATGCAT [XGTACX_site5218]
Second: GTATAACAACTGATAAAAGAAAAAAAATTTATTATT [CACACA_negctrl_site377]
The “gcPBM binding intensity (ln)” value of the first is higher: 9.83 for the first, 9.53 for the second.

Going from “ATAATATTTTTAAACTGTACTTTTATAAACACTTAT [XGTACX_site2625]” to “TCATATTTTACATATGCATGTTAATAATACAAACAT [TGCATGCA_site994]”, the “gcPBM binding intensity (ln)” value falls from 9.75 to 9.68.

First: TTTTTTTCGTATATTACACACTATAAATAGAAATTA [CACACA_site6278]
Second: TTAACATCAAAATATGCACACAAACAATTAGCGGTA [CACACA_site8801]
The “gcPBM binding intensity (ln)” value of the first is lower: 9.48 for the first, 9.89 for the second.

Going from “TATATATATAAATACACACACACCCTAAAAATATAT [CACACA_site4970]” to “ATATTATGTCTACATAAACACACATATATATAAAAA [CACACA_site7976]”, the “gcPBM binding intensity (ln)” value falls from 10.4 to 9.73.

Compared with “TTACCATAAGTATGTGGTACACTTTAAATGAAGATA [XGTACX_site6972]”, “AATAAATATTCATTTTGTACATATTTTTCGTATATG [XGTACX_site6104]” is higher in “gcPBM binding intensity (ln)” value: 9.53 for the first, 9.65 for the second.

For “AATAGTTATAAATATAAATATATATATATATATATA [CACACA_negctrl_site414]”, the “gcPBM binding intensity (ln)” value was 9.48.
